# The supplement of paper PMC11417369
# ± gives the standard deviation of the averaged measurements. The list shows a part of the results.
# Test system: PfAP2-EXP AP2 domain (GST-tagged)
# Assay: gcPBM binding intensity (ln(normalized median fluorescence intensity)); higher = stronger DNA binding
# Procedure, shortened: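 The binding buffer was 1× PBS containing 1% milk, 0.2 mg/ml BSA, 0.5% salmon testes DNA and 0.03% Triton X-100. In it, GST-tagged P. falciparum DNA-binding domains expressed in E. coli were applied for 1 h to an Agilent 4 × 180k array of primer-extended double-stranded 36-bp intergenic genomic probes plus negative controls. Binding intensity, read with Alexa488 anti-GST antibody and a 488 nm scan, is the highest Masliner-normalised natural-log median intensity across replicate spots of either probe orientation.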
row,Sequence,gcPBM binding intensity (ln)
1,TAAAAGTAGATATATACACACATAAATATAGATGTA [CACACA_site6457],8.33 ± 0.31
2,AGGAAAAAAAAAATGTGTACTTAAAAAAAAAAAATT [XGTACX_site1471],8.45 ± 0.35
3,AATAAATAAATATATACACACATATATCTGTACATA [CACACA_site9034],8.54 ± 0.49
4,TTTTATCATATTTATTGTACACATAATATACATATC [XGTACX_site1145],8.83 ± 0.28
5,CGTTTATATTTTAACTGTACTCAAAAAGTGCATTGT [XGTACX_site6072],8.53 ± 0.099
6,TTTTATATATTATATACACACATATATATATATATA [CACACA_site2999],10.2 ± 0.32
7,TGTATGTTTATTTATCGTACATATATATATATATAT [XGTACX_site7315],10.2 ± 0.18
8,TAAATTATAATAAATACACACAAATTATAATTCTAT [CACACA_site3942],8.52 ± 0.45
9,CATTTTATAAAAAGCACACATATAGTTATATGCACA [CACACA_site3691],8.8 ± 0.12
10,TATATATATATACATTGTACATTATTGATTATAACA [XGTACX_site1678],10 ± 0.17
11,TTTGAATCCTTATATACACACATTATATAATATTAT [CACACA_site4472],8.73 ± 0.35
12,TTTATTCTCCGACACACACACATATATTTATTTATA [CACACA_site7377],8.85 ± 0.48
13,AAATTAGAATTAGGAACACACATATTTATATTTATA [CACACA_site7450],8.33 ± 0.44
14,ATATATAAAAAATGTGGTACATTCATTTATTATACA [XGTACX_site3495],8.2 ± 0.29
15,TTAGGACAAAAAAAAATAAAAATAAAATAAAATAAT [CACACA_negctrl_site1613],8.55 ± 0.44
16,TATTAAATGAAACAAACACACATAGCCTTTAAATAT [CACACA_site1560],8.61 ± 0.57
17,ATTTTTTTTTTTATAGTGGAACCACATTTGCCATTT [CACACA_negctrl_site1247],8.71 ± 0.43
18,ATATATATATCATATTGTACATATTATTGTATAATC [XGTACX_site5020],9.24 ± 0.19
19,ATAAAATAAAACAGAGCACACATTTTATTTACATTC [CACACA_site696],8.54 ± 0.59
20,AAATTATATATATTTACATGCAATATAATGAAATAA [TGCATGCA_site229],8.84 ± 0.35
21,ATATAAACATGTTTGTGTACGTAATATGAAAAATAA [XGTACX_site8157],9.04 ± 0.35
22,GTATGTATAATATACACACTCACAAGCATTCAAATA [CACACA_site267],8.4 ± 0.45

row,Sequence,gcPBM binding intensity (ln)
1,AAATATTATACAAAAAAAAAAAAAAAAAAAATATAT [CACACA_negctrl_site52],8.23 ± 0.3
2,ATTTTGTATATATTTTGTACATATTTTGTATATATT [XGTACX_site885],8.68 ± 0.3
3,TTGTTTTTAAGAAAAACACACACTCCTGTTATTTTA [CACACA_site9230],8.37 ± 0.45
4,GACCCAATGAAAAGGTCACACATTTTTTCTTTTCGA [CACACA_site5074],8.16 ± 0.36
5,AAAAATAAAAAGAATTGTACATATAAATCATATACA [XGTACX_site6860],8.26 ± 0.34
6,TAAAAATATATAAACAGTACATAAATTAAATAAATA [XGTACX_site6962],8.62 ± 0.27
7,AAAGTTTTTACCAAGTGTACATATATATATATATAT [XGTACX_site5786],10.1 ± 0.61
8,GTTAAAATTTGTCAATGTACAGAAATAATAAAAAAA [XGTACX_site1879],8.66 ± 0.4
9,TATTTTTTTTAGCGTACATGCAAAAAAAAAAAAAAA [TGCATGCA_site555],8.54 ± 0.29
10,GTTTATTTATTTTATGTGCACATATAACAAAAAAAA,9.02 ± 0.11
11,TTTTTTCTTTAATACTCAATATGATAAAAGTAACAC [XGTACX_negctrl_site163],8.41 ± 0.38
12,TCCAATTAAATATATGAACACACATGTGAACTTTCT [CACACA_site9318],8.47 ± 0.46
13,ATGTAAATGTTATTATGTACATATTTATTCTTCAAA [XGTACX_site7377],8.58 ± 0.35
14,TTAAGTCATAAATAAAGTACATAAATATAATATATA [XGTACX_site6304],8.46 ± 0.2
15,GGGGGTAGGGGAAGAAGTACAATGATCACTACAGTA [XGTACX_site1169],9.85 ± 0.29
16,TTTTTTATTAAAAGCGAAAAAAATGAAAACTTTTTT [GTGCAC_negctrl_site605],8.15 ± 0.46
17,GAAGTAGATGGAAAAGTGCACTGTAATGGTTATATT,9.13 ± 0.34
18,TTTTTAATTAACTTTGTAAACTTATATATATATATA [TGCATGCA_negctrl_site311],10.1 ± 0.2
19,TTAAAGCACCCATGCACACACACAAGGGAAAAGAAA [CACACA_site4289],9.35 ± 0.74
20,AAGGAATATTAAGTGGGTACTAAAAAAAAATTAATT [XGTACX_site331],8.7 ± 0.38
21,TGTATATAGAAACATACACACATATTAATTTTACAT [CACACA_site3126],8.32 ± 0.41
22,CGTATGCGTATATACACACCCACGTATATATATAAA [CACACA_site3200],8.61 ± 0.4
